{"source": "patent US11000038B2", "about": "“Pyridone compounds and agricultural and horticultural fungicides containing the same as active ingredients” (priority 2017, dated 2021)", "key": {"[1]": {"system": "rice blast fungi (Magnaporthe grisea)", "type": "in vivo", "conditions": "for Test A control value: rice blast; for Test A control value class (rice blast): control value=100{1-(n/3)}"}, "[2]": {"system": "tomato late blight fungi (Phytophthora infestans)", "type": "in vivo", "conditions": "for Test F control value: tomato late blight; for Test F control value class (tomato late blight): control value=100{1-(n/3)}"}, "[3]": {"system": "cucumber anthracnose fungi (Colletotrichum orbiculare)", "test": "Test Example H: cucumber anthracnose, spray treatment of cucumber plants", "conditions": "for Test H control value: cucumber anthracnose, 6 to 10 days after inoculation; for Test H control value class (cucumber anthracnose): 2.5 ml/pot, cucumber Sagami Hanjiro, 6 to 10 days from inoculation"}, "[4]": {"conditions": "spray treatment of tomato plants"}}, "note": "Where two headings read alike, the source gives them in different places."}
{"smiles": "Cc1cn(-c2ccccc2C(C)C)c(-c2c(F)cc(F)cc2F)c(C)c1=O", "note": "[Compound 397]", "values": [{"measurement": "Test A control value", "setting": "[1]; spray treatment", "result": "L (L shows the control value of 50% or less)"}, {"measurement": "Test F control value", "setting": "[2]; spray treatment", "result": "L (L shows the control value of 50% or less)"}, {"measurement": "Test H control value", "setting": "[3]; 250 ppm spray", "result": "L (L shows the control value of 50% or less)"}]}
{"smiles": "CNc1ccc(C)c(-n2cc(Br)c(=O)c(Cl)c2-c2c(F)cc(F)cc2F)c1", "note": "[Compound 374]", "values": [{"measurement": "Test A control value", "setting": "[1]; spray treatment", "result": "H (H shows the control value of more than 50%)"}, {"measurement": "Test F control value", "setting": "[2]; spray treatment", "result": "L (L shows the control value of 50% or less)"}, {"measurement": "Test H control value", "setting": "[3]; 250 ppm spray", "result": "H (H shows the control value of more than 50%)"}]}
{"smiles": "COc1ccc(C)c(-n2cc(Br)c(=O)c(Br)c2-c2c(F)cccc2F)c1", "note": "[Compound 385]", "values": [{"measurement": "Test A control value", "setting": "[1]; spray treatment", "result": "H (H shows the control value of more than 50%)"}, {"measurement": "Test F control value", "setting": "[2]; spray treatment", "result": "L (L shows the control value of 50% or less)"}, {"measurement": "Test H control value", "setting": "[3]; 250 ppm spray", "result": "H (H shows the control value of more than 50%)"}]}
{"smiles": "Cc1ccc(F)cc1-n1cc(Br)c(=O)c(Cl)c1-c1ccccc1", "note": "[Compound 399]", "values": [{"measurement": "Test A control value", "setting": "[1]; spray treatment", "result": "L (L shows the control value of 50% or less)"}, {"measurement": "Test F control value", "setting": "[2]; spray treatment", "result": "L (L shows the control value of 50% or less)"}, {"measurement": "Test H control value", "setting": "[3]; 250 ppm spray", "result": "H (H shows the control value of more than 50%)"}]}
{"smiles": "CCc1c(-c2ccccc2)n(-c2cc(Br)ccc2C)cc(Br)c1=O", "note": "[Compound 499]", "values": [{"measurement": "Test A control value", "setting": "[1]; spray treatment", "result": "H (H shows the control value of more than 50%)"}, {"measurement": "Test F control value", "setting": "[2]; spray treatment", "result": "L (L shows the control value of 50% or less)"}, {"measurement": "Test H control value", "setting": "[3]; 250 ppm spray", "result": "L (L shows the control value of 50% or less)"}]}
{"smiles": "Cc1ccc(F)cc1-n1cc(Br)c(=O)c(C)c1-c1ccccc1", "note": "[Compound 398]", "values": [{"measurement": "Test A control value", "setting": "[1]; spray treatment", "result": "H (H shows the control value of more than 50%)"}, {"measurement": "Test F control value", "setting": "[2]; spray treatment", "result": "L (L shows the control value of 50% or less)"}, {"measurement": "Test H control value", "setting": "[3]; 250 ppm spray", "result": "L (L shows the control value of 50% or less)"}]}
{"smiles": "Cc1c(-c2ccccc2)n(-c2cc(F)ccc2Cl)cc(Br)c1=O", "note": "[Compound 415]", "values": [{"measurement": "Test A control value", "setting": "[1]; spray treatment", "result": "H (H shows the control value of more than 50%)"}, {"measurement": "Test F control value", "setting": "[2]; spray treatment", "result": "L (L shows the control value of 50% or less)"}, {"measurement": "Test H control value", "setting": "[3]; 250 ppm spray", "result": "H (H shows the control value of more than 50%)"}]}
{"smiles": "O=c1c(Cl)cn(CC2CCCCC2)c(-c2c(F)cc(F)cc2F)c1F", "note": "[Compound 121]", "values": [{"measurement": "Test A control value class (rice blast)", "setting": "[1]; spray treatment of rice plants", "result": "L (L shows the control value of 50% or less)"}, {"measurement": "Test F control value class (tomato late blight)", "setting": "[2]; [4]", "result": "L (L shows the control value of 50% or less)"}, {"measurement": "Test H control value class (cucumber anthracnose)", "setting": "[3]; 250 ppm spray", "result": "L (L shows the control value of 50% or less)"}]}
{"smiles": "CCc1c(-c2ccccc2)n(-c2ccccc2Cl)cc(C)c1=O", "note": "[Compound 538]", "values": [{"measurement": "Test A control value", "setting": "[1]; spray treatment", "result": "L (L shows the control value of 50% or less)"}, {"measurement": "Test F control value", "setting": "[2]; spray treatment", "result": "L (L shows the control value of 50% or less)"}, {"measurement": "Test H control value", "setting": "[3]; 250 ppm spray", "result": "H (H shows the control value of more than 50%)"}]}
{"smiles": "O=c1c(Br)cn(-c2ccccc2F)c(-c2c(F)cccc2F)c1Cl", "note": "[Compound 361]", "values": [{"measurement": "Test A control value", "setting": "[1]; spray treatment of rice plants", "result": "L (L shows the control value of 50% or less)"}, {"measurement": "Test F control value", "setting": "[2]; [4]", "result": "L (L shows the control value of 50% or less)"}, {"measurement": "Test H control value", "setting": "[3]; 250 ppm spray (2.5 ml/pot)", "result": "H (H shows the control value of more than 50%)"}]}
{"smiles": "CSCn1cc(C)c(=O)c(C)c1-c1c(F)cc(F)cc1F", "note": "[Compound 269]", "values": [{"measurement": "Test A control value", "setting": "[1]; spray treatment of rice plants", "result": "L (L shows the control value of 50% or less)"}, {"measurement": "Test F control value", "setting": "[2]; [4]", "result": "L (L shows the control value of 50% or less)"}, {"measurement": "Test H control value", "setting": "[3]; 250 ppm spray (2.5 ml/pot)", "result": "L (L shows the control value of 50% or less)"}]}
{"smiles": "CCC(C)Cn1cc(Cl)c(=O)c(Br)c1-c1c(F)cc(OC)cc1F", "note": "(stereo not drawn) [Compound 168]", "values": [{"measurement": "Test A control value class (rice blast)", "setting": "[1]; spray treatment of rice plants", "result": "H (H shows the control value of more than 50%)"}, {"measurement": "Test F control value class (tomato late blight)", "setting": "[2]; [4]", "result": "L (L shows the control value of 50% or less)"}, {"measurement": "Test H control value class (cucumber anthracnose)", "setting": "[3]; 250 ppm spray", "result": "H (H shows the control value of more than 50%)"}]}
{"smiles": "CC(C)C(C)n1cc(Br)c(=O)c(Br)c1-c1c(F)cc(F)cc1F", "note": "(stereo not drawn) [Compound 47]", "values": [{"measurement": "Test A control value class (rice blast)", "setting": "[1]; spray treatment of rice plants", "result": "H (H shows the control value of more than 50%)"}, {"measurement": "Test F control value class (tomato late blight)", "setting": "[2]; [4]", "result": "L (L shows the control value of 50% or less)"}, {"measurement": "Test H control value class (cucumber anthracnose)", "setting": "[3]; 250 ppm spray", "result": "H (H shows the control value of more than 50%)"}]}
